# Test results from the supplement of paper PMC8728848.
# This is one part of the list.
# Assays:
# Assay in all cases: glycan array binding signal (z-score within array); higher = stronger binding
# Conditions in all cases: glycan notation: IUPAC condensed, linker removed
# [1] = molecular target: GlcNAc(b1-4)GlcNAc(b1-4)GlcNAc(b1-4)GlcNAc(b1-4)GlcNAc
# Procedure, shortened: (§1)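 From the Consortium for Functional Glycomics database, 3228 arrays were curated, keeping only those whose protein sequence was available. Binding is given as a within-array Z-score averaged across arrays sharing a protein sequence and across linkers. Negative Z-scores can be read as non-binding.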
# [2] = molecular target: GlcNAc(b1-4)GlcNAc(b1-4)GlcNAc(b1-4)GlcNAc(b1-4)GlcNAc(b1-4)GlcNAc
# Procedure, shortened: as §1
# [3] = molecular target: GlcNAc(b1-4)[GlcNAc(b1-6)]GalNAc
# Procedure, shortened: as §1
# [4] = molecular target: GlcNAc(b1-6)Gal(b1-4)GlcNAc
# Procedure, shortened: as §1
# [5] = molecular target: GlcNAc(b1-6)GalNAc
# Procedure, shortened: as §1
# [6] = molecular target: GlcNAc6S(b1-3)Gal(b1-4)GlcNAc
# Procedure, shortened: as §1
# [7] = molecular target: Kdn(a2-3)Gal(b1-3)GalNAc
# Procedure, shortened: as §1
# [8] = molecular target: Kdn(a2-3)Gal(b1-3)GlcNAc
# Procedure, shortened: as §1
# [9] = molecular target: Kdn(a2-3)Gal(b1-4)Glc
# Procedure, shortened: as §1
# [10] = molecular target: Kdn(a2-3)Gal(b1-4)GlcNAc
# Procedure, shortened: as §1
# [11] = molecular target: Kdn(a2-3)Gal(b1-4)[Fuc(a1-3)]GlcNAc
# Procedure, shortened: as §1
# [12] = molecular target: Kdn(a2-6)Gal(b1-4)GlcNAc
# Procedure, shortened: as §1
# [13] = molecular target: Man(a1-2)Man(a1-2)Man(a1-3)Man
# Procedure, shortened: as §1
# [14] = molecular target: Man(a1-2)Man(a1-2)Man(a1-6)[Man(a1-3)]Man
# Procedure, shortened: as §1
# [15] = molecular target: Man(a1-2)Man(a1-3)Man
# Procedure, shortened: as §1
# [16] = molecular target: Man(a1-2)Man(a1-3)[Man(a1-2)Man(a1-6)]Man
# Procedure, shortened: as §1
# [17] = molecular target: Man(a1-2)Man(a1-3)[Man(a1-2)Man(a1-6)]Man(a1-6)[Man(a1-2)Man(a1-2)Man(a1-3)]Man
# Procedure, shortened: as §1
# [18] = molecular target: Man(a1-2)Man(a1-3)[Man(a1-2)Man(a1-6)]Man(a1-6)[Man(a1-2)Man(a1-2)Man(a1-3)]Man(b1-4)GlcNAc(b1-4)GlcNAc
# Procedure, shortened: as §1
# [19] = molecular target: Man(a1-2)Man(a1-3)[Man(a1-6)]Man(a1-6)[Man(a1-2)Man(a1-3)]Man(b1-4)GlcNAc(b1-4)GlcNAc
# Procedure, shortened: as §1
# [20] = molecular target: Man(a1-2)Man(a1-6)[Man(a1-3)]Man(a1-6)[Man(a1-2)Man(a1-2)Man(a1-3)]Man
# Procedure, shortened: as §1
# [21] = molecular target: Man(a1-2)Man(a1-6)[Man(a1-3)]Man(a1-6)[Man(a1-2)Man(a1-2)Man(a1-3)]Man(b1-4)GlcNAc(b1-4)GlcNAc
# Procedure, shortened: as §1
# [22] = molecular target: Man(a1-3)[Man(a1-6)]Man
# Procedure, shortened: as §1
# [23] = molecular target: Man(a1-3)[Man(a1-6)]Man(a1-6)[Man(a1-2)Man(a1-3)]Man(b1-4)GlcNAc(b1-4)GlcNAc
# Procedure, shortened: as §1
# [24] = molecular target: Man(a1-3)[Man(a1-6)]Man(a1-6)[Man(a1-3)]Man
# Procedure, shortened: as §1
# [25] = molecular target: Man(a1-3)[Man(a1-6)]Man(a1-6)[Man(a1-3)]Man(b1-4)GlcNAc(b1-4)GlcNAc
# Procedure, shortened: as §1
# [26] = molecular target: Man(a1-3)[Man(a1-6)]Man(b1-4)GlcNAc(b1-4)GlcNAc
# Procedure, shortened: as §1
# [27] = molecular target: Man(a1-3)[Man(a1-6)]Man(b1-4)GlcNAc(b1-4)[Fuc(a1-6)]GlcNAc
# Procedure, shortened: as §1
# [28] = molecular target: Man(a1-6)Man
# Procedure, shortened: as §1
# [29] = molecular target: Man(b1-4)GlcNAc
# Procedure, shortened: as §1
# [30] = molecular target: MurNAc(b1-4)GlcNAc
# Procedure, shortened: as §1
# [31] = molecular target: Neu5Ac(a2-3)Gal
# Procedure, shortened: as §1
# [32] = molecular target: Neu5Ac(a2-3)Gal(b1-3)GalNAc
# Procedure, shortened: as §1
# [33] = molecular target: Neu5Ac(a2-3)Gal(b1-3)GalNAc(b1-3)Gal(a1-4)Gal(b1-4)Glc
# Procedure, shortened: as §1
# [34] = molecular target: Neu5Ac(a2-3)Gal(b1-3)GalNAc(b1-4)[Neu5Ac(a2-3)]Gal(b1-4)Glc
# Procedure, shortened: as §1
# [35] = molecular target: Neu5Ac(a2-3)Gal(b1-3)GalNAc(b1-4)[Neu5Ac(a2-8)Neu5Ac(a2-3)]Gal(b1-4)Glc
# Procedure, shortened: as §1
# [36] = molecular target: Neu5Ac(a2-3)Gal(b1-3)GalNAc6S
# Procedure, shortened: as §1
# [37] = molecular target: Neu5Ac(a2-3)Gal(b1-3)GlcNAc
# Procedure, shortened: as §1
binder,measurement,setting,value
Als3-N (Candida albicans) (protein) KTITGVFNSFNSLTWSNAATYNYKGPGTPTWNAVLGWSLDGTSASPGDTFTLNMPCVFKFTTSQTSVDLTAHGVKYATCQFQAGEEFMTFSTLTCTVSNTLTPSIKALGTVTLPLAFNVGGTGSSVDLEDSKCFTAGTNTVTFNDGGKKISINVDFERSNVDPKGYLTDSRVIPSLNKVSTLFVAPQCANGYTSGTMGFANTYGDVQIDCSNIHVGITKGLNDWNYPVSSESFSYTKTCSSNGIFITYKNVPAGYRPFVDAYISATDVNSYTLSYANEYTCAGGYWQRAPFTLRWTGYRNSDAGSNGIVIVATTRTVTDSTTAVTTLPFDPNRDKTKTIEILKPIPTTTITTSYVGVTTSYLTKTAPIGETATVIVDIPYHTTTTVTSKWTGTITSTTTHTNPTDSIDTVIVQVP,glycan array binding signal (z-score),[1],-0.219
same,glycan array binding signal (z-score),[2],-0.176
same,glycan array binding signal (z-score),[3],-0.345
same,glycan array binding signal (z-score),[4],-0.196
same,glycan array binding signal (z-score),[5],-0.183
same,glycan array binding signal (z-score),[6],-0.1
same,glycan array binding signal (z-score),[7],-0.01
same,glycan array binding signal (z-score),[8],-0.154
same,glycan array binding signal (z-score),[9],-0.274
same,glycan array binding signal (z-score),[10],-0.156
same,glycan array binding signal (z-score),[11],-0.144
same,glycan array binding signal (z-score),[12],-0.192
same,glycan array binding signal (z-score),[13],-0.063
same,glycan array binding signal (z-score),[14],-0.257
same,glycan array binding signal (z-score),[15],-0.226
same,glycan array binding signal (z-score),[16],-0.321
same,glycan array binding signal (z-score),[17],-0.326
same,glycan array binding signal (z-score),[18],-0.17
same,glycan array binding signal (z-score),[19],-0.192
same,glycan array binding signal (z-score),[20],-0.361
same,glycan array binding signal (z-score),[21],-0.368
same,glycan array binding signal (z-score),[22],-0.317
same,glycan array binding signal (z-score),[23],-0.233
same,glycan array binding signal (z-score),[24],-0.316
same,glycan array binding signal (z-score),[25],-0.2
same,glycan array binding signal (z-score),[26],-0.176
same,glycan array binding signal (z-score),[27],-0.019
same,glycan array binding signal (z-score),[28],-0.169
same,glycan array binding signal (z-score),[29],-0.264
same,glycan array binding signal (z-score),[30],0.037
same,glycan array binding signal (z-score),[31],-0.247
same,glycan array binding signal (z-score),[32],-0.06
same,glycan array binding signal (z-score),[33],-0.162
same,glycan array binding signal (z-score),[34],-0.293
same,glycan array binding signal (z-score),[35],-0.235
same,glycan array binding signal (z-score),[36],-0.243
same,glycan array binding signal (z-score),[37],-0.252
